Laboratory results from PubChem BioAssay (NCI).
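Assay format: 96-well plates, 48-hour exposure. GI50 = concentration required for 50% inhibition of growth.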 The source holds more than one record for some entries. This is not the full list of results. There may be further records. For part of these data: Values given together repeat one measurement (runs, samples, wells, individuals or studies). Brackets tell where a record comes from. Letters hold for one entry only.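 At the TGI there is no net growth.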 For part of these data: A record mostly stands for its own series of concentrations, not given here; a value can be the end of its range. *1 amine or outer side, *2 acyl side, *3 side chain or, on linkers, in order; H or OH if unused. Where a SMILES comes first, the peptide text is derived from it. Bridges are numbered along the chain shown (N, C = ends). [ ]: non-standard residue; d: D form. ξ: configuration not given here. X4 = CCC(C)C(N[*:1])C(O)CC(=O)O[C@H](C(=O)C(C)C(=O)[*:2])C(C)C; NMeY = CN[C@@H](Cc1ccc(O)cc1)C(=O)O; ξNMeL = CNC(CC(C)C)C(=O)O; ξT = CC(O)C(N)C(=O)O

What was measured:
Assay in all cases: NCI anticancer screen, dose series, 48 h
CCRF-CEM leukemia = system: CCRF-CEM leukemia
HCT-15 colon = system: HCT-15 colon
MALME-3M melanoma = system: MALME-3M melanoma
PC-3 prostate = system: PC-3 prostate
SK-MEL-2 melanoma = system: SK-MEL-2 melanoma
MDA-MB-231 breast = system: MDA-MB-231 breast
SN12C renal = system: SN12C renal
SF-295 CNS = system: SF-295 CNS
HOP-62 NSCLC = system: HOP-62 NSCLC
A498 renal = system: A498 renal
UO-31 renal = system: UO-31 renal
MCF7 breast = system: MCF7 breast
NCI-H460 lung = system: NCI-H460 lung
RPMI-8226 leukemia = system: RPMI-8226 leukemia
DU-145 prostate = system: DU-145 prostate
T-47D breast = system: T-47D breast
HCT-116 colon = system: HCT-116 colon
COLO 205 colon = system: COLO 205 colon

For CC(=O)OCC1OC(n2c(-c3ccccc3)cc(-c3ccco3)c(C#N)c2=O)C(OC(C)=O)C(OC(C)=O)C1OC(C)=O (stereo unspecified), the GI50 (CCRF-CEM leukemia) was > 100 µM [sample A, 1 test] and 6.16 µM [sample B, 1 test].
In the case of CSC1SCC2C(=O)N(C)C3(CC3C)C(=O)OCC(NC(=O)c3nc4ccccc4cc3O)C(=O)NC(C)C(=O)N(C)C1C(=O)N(C)C1(CC1C)C(=O)OCC(NC(=O)c1nc3ccccc3cc1O)C(=O)NC(C)C(=O)N2C (stereo unspecified), the TGI (HCT-15 colon) is reported as 353 nM and > 100 µM, the TGI (MALME-3M melanoma) is reported as < 0.1 nM and 298 nM and the TGI (PC-3 prostate) is reported as 0.226 nM and 28.2 nM. For the same molecule, the TGI (SK-MEL-2 melanoma) was < 0.1 nM and 266 nM, the TGI (MDA-MB-231 breast) was 0.143 nM and 13.1 µM and the TGI (SN12C renal) was < 0.1 nM and > 100 µM. The TGI (SF-295 CNS) was < 0.1 nM and 339 nM and the TGI (HOP-62 NSCLC) was < 0.1 nM and 31 nM.
O=c1ccn(C2OC(CO)C(O)C2O)c(=O)[nH]1 (stereo unspecified) was tested, and the GI50 (A498 renal) was 1.7 µM [sample A, 1 test] and > 1 mM [sample B, 1 test], the GI50 (UO-31 renal) was 165 nM [sample A, 1 test] and 906 µM [sample B, 1 test] and the TGI (UO-31 renal) was 8.91 µM [sample A, 1 test] and > 1 mM [sample B, 1 test].
CCC(C)C1NC(=O)C(NC(=O)C(CC(C)C)N(C)C(=O)[C@@H]2CCCN2)C(C)OC(=O)[C@H](Cc2ccc(OC)cc2)N(C)C(=O)[C@@H]2CCCN2C(=O)[C@H](CC(C)C)NC(=O)C(C)C(=O)[C@H](C(C)C)OC(=O)CC1O (stereo partly specified) (H-P[ξNMeL][ξT][X4]LP[NMeY](Me); ester 3-C) was tested, and the TGI (MCF7 breast) was 9.84 nM and 10.2 µM, the TGI (NCI-H460 lung) was 3.26 nM and 154 nM and the TGI (RPMI-8226 leukemia) was 8.35 nM and 212 nM. The TGI (DU-145 prostate) was 14.7 nM and 857 nM, the TGI (T-47D breast) was 4.18 nM and 1.23 µM and the TGI (HCT-116 colon) was 2.48 nM and 11.8 µM. The TGI (MDA-MB-231 breast) was 15.6 nM and 254 nM, the TGI (SN12C renal) was 4.37 nM and 10.1 µM and the TGI (COLO 205 colon) was 1.32 nM and 12.5 µM.
